Measurements reported in patent publication US20050059087A1, “Antibodies directed to the deletion mutants of epidermal growth factor receptor and uses thereof” (priority 2003, published 2005).
Residue numbers refer to the chain shown, from its start. Names and notes keep the numbering of the source.

B1: 13.1.2: human anti-EGFRvIII hybridoma mAb, subclone of 13.1; SEQ ID NO: 138 and 140 (antibody, listed as Homo sapiens)
VH: QVQLVESGGGVVQPGRSLRLSCAASGFTFSSYGMHWVRQAPGKGLEWVAVIWYDGSNKYYVDSVKGRFTISRDNSKNTLYLQMNSLRAEDTAVYYCARDGWQQLAPFDYWGQGTLVTVSSASTKGPSVFPLAPSSKSTSGGTAALGCLVKDYFPEPVTVSWNSGALTSGV
light: [no letters for about 100 residues]QLPRTFGQGTKVEIKRTVAAPSVFIFPPSDEQLKSGTASVVCLLNNFYPREAKVQWKVDNALQSGNSQ
B2: L217Q-10.1: 13.1.2 variant with point mutation Leu217Gln (antibody)
VH: B1 VH with L104Q
VL: [no letters for about 100 residues]QLPRTFGQGTKVEIKRTVAAPSVFIFPPSDEQLKSGTASVVCLLNNFYPREAKVQWKVDNALQSGNSQ
B3: Y172R-1.2: 13.1.2 variant with point mutation Tyr172Arg (antibody)
VH: B1 VH with Y59R
VL: [no letters for about 100 residues]QLPRTFGQGTKVEIKRTVAAPSVFIFPPSDEQLKSGTASVVCLLNNFYPREAKVQWKVDNALQSGNSQ
B4: L99H-9.2: 13.1.2 variant with point mutation Leu99His (antibody)
VH: B1 VH
VL: [no letters for about 100 residues]QHPRTFGQGTKVEIKRTVAAPSVFIFPPSDEQLKSGTASVVCLLNNFYPREAKVQWKVDNALQSGNSQ
B5: N35G-3.1: 13.1.2 variant with point mutation Asn35Gly (antibody)
VH: B1 VH
VL: DIVMTQTPLSSPVTLGQPASISCRSSQSLVHSDGGTYLSWLHQRPGQPPRLLIYKISNRFSGVPDRFSGSGAGTAFTLKISRVEAEDVGVYYCMQATQLPRTFGQGTKVEIKRTVAAPSVFIFPPSDEQLKSGTASVVCLLNNFYPREAKVQWKVDNALQSGNSQ
B6: L99T-5.3: 13.1.2 variant with point mutation Leu99Thr (antibody)
VH: B1 VH
VL: [no letters for about 100 residues]QTPRTFGQGTKVEIKRTVAAPSVFIFPPSDEQLKSGTASVVCLLNNFYPREAKVQWKVDNALQSGNSQ
B7: L217N-2.1: 13.1.2 variant with point mutation Leu217Asn (antibody)
VH: B1 VH with L104N
VL: [no letters for about 100 residues]QLPRTFGQGTKVEIKRTVAAPSVFIFPPSDEQLKSGTASVVCLLNNFYPREAKVQWKVDNALQSGNSQ

Assays:
[1] = biological target: T1, H1477 (H80-EGFRvIII) cells (Homo sapiens, UniProt P00533, DELINS30-297G); test: FACS staining of H1477 (H80-EGFRvIII) cells; format: cell-based; conditions: 10 μg/ml
T1 construct: host or cells: H1477 (H80 human glioblastoma line transfected with EGFRvIII)
Description: (§1) The specificity of the purified antibodies was ascertained by performing FACS analysis on a panel of cell lines. H80, a human glioblastoma line, and H1477 (H80-EGFRvIII) that expresses high levels of EGFRvIII, A431, a human epidemoid carcinoma line, and A549, a human lung carcinoma cell line were used as the cell lines. All cell lines were from Dr. Bigner except A431 and A549, which were from ATCC (Rockville, Md., U.S.A.). Cells were incubated on ice with 10 μg/ml of the respective antibody for 30 min., washed in FACS buffer and subsequently incubated with PE-conjugated goat anti-human IgG from Jackson ImmunoResearch (West Grove, Pa., U.S.A.). In FIGS. 9A-9L and 10A-10D, the darkened histogram indicates cells stained with an irrelevant IgG, the outlined, or white histogram, represents the staining of the relevant antibodies.

[2] = biological target: T2, EGFRvIII peptide-OVA (muEGFr) (Homo sapiens, UniProt P00533, DELINS30-297G); test: Hybridoma supernatant ELISA on EGFRvIII peptide-OVA coated plates; format: binding; conditions: clone supernatant
T2 construct: purchased R&D Systems (custom synthesis); host or cells: synthetic peptide
Description: (§2) Cells were plated in flat bottomed 96-well tissue culture plates at 4×1 cells per well. Cultures were maintained in HAT (hypoxanthine, aminopterin and thymidine) supplemented media for 2 weeks before transfer to HT (hypoxanthine and thymidine) supplemented media. Hybridomas were selected for by survival in HAT medium and supernatants were screened for antigen reactivity by ELISA. The ELISA format entailed incubating supernatants on antigen coated plates (EGFRvIII peptide-OVA coated plates and wild type EGFr peptide-OVA coated plates as a counter screen) and detecting EGFRvIII-specific binding using horseradish peroxidase (HRP) labeled mouse anti-human IgG (see Table 2.1).

[3] = biological target: T3, EGFRvIIIpflag (iodoacetic acid reacted) (Homo sapiens, UniProt P00533, DELINS30-297G); test: KinExA equilibrium measurement, EGFRvIIIpflag; format: binding
T3 construct: A 1092 bp fragment encoding the extracellular domain of EGFRvIII was generated; FLAG; made in house; host or cells: 293T cells
Description: The equilibrium titration data were fit in a dual curve analysis to a 1:1 binding model using KinExA software (Version 2.4, Sapidyne Instruments).
A sample volume of 250 μL was analyzed for the antibody-controlled experiment. Two or three replicates of each sample were measured for all equilibrium experiments. The equilibrium titration data were fit in a dual curve analysis to a 1:1 binding model using KinExA software (Version 2.4, Sapidyne Instruments).

Pep-3 (EGFRvIII epitope) = biological target: T4, Pep-3 (EGFRvIII epitope) (Homo sapiens, UniProt P00533, DELINS30-297G); test: Biacore (surface plasmon resonance) binding kinetics to Pep-3
T4 construct: purchased Anatech, Inc. (San Jose, Calif.); host or cells: custom synthesis
Description: All antigen and mAb samples for Biacore and KinExA analysis were prepared in vacuum-degassed HBS-P buffer (0.01 M HEPES, 0.15 M NaCl, 0.005% surfactant P-20, Biacore Inc., Uppsala, Sweden) containing 100 μg/mL BSA. […] Research grade CM5 biosensor chips were purchased from Biacore, Inc.
Standard EDC/NHS and carbohydrate coupling was used to covalently immobilize mAbs to a CM5 sensor chip. To minimize mass transport and crowding mAbs were immobilized at levels that gave a maximum antigen binding response (Rmax) of no more than 50-100 RU. A reference flow cell on each chip was activated and blocked with no mAb immobilization to serve as a control.
All Biacore kinetic experiments were conducted at 23° C. […] Antigen samples were randomly injected over the biosensor surface in triplicate at 100 μL/min. Several buffer blanks were injected intermittently over the course of an experiment for double referencing. Each pep-3 concentration and blank were injected for 90 seconds. Dissociation was followed for 13 to 180 minutes.
All Biacore sensorgrams were processed using Scrubber software (Version 1.1f, BioLogic Software, Australia). Sensorgrams were first zeroed on the y-axis and then x-aligned at the beginning of the injection. Bulk refractive index changes were removed by subtracting the reference flow cell responses. The average response of all blank injections was subtracted from all analyte and blank sensorgrams to remove systematic artifacts between the experimental and reference flow cells. CLAMP biosensor data analysis software (Version 3.40, BioLogic Software, Australia) was used to determine ka and kd from the processed data sets. Data from all flow cells were globally fit to a 1:1 bimolecular binding model that included a mass transport term. […] The KD was calculated from the quotient kd/ka.
Two CM5 sensor chips were used in total to immobilize both mAbs. […] Biacore 2000 optical biosensors were used for all studies.
Next, pep-3 was flowed across the mAb immobilized biosensor surfaces. The starting concentration of pep-3 was 1.25 μM, which was followed with eight two-fold serial dilutions in randomized triplicate injections. Blank injections were run every sixth sample throughout the injection series for double referencing purposes.
Finally, the biosensor data was processed with Scrubber and the data was fit to curves utilizing Clamp with a 1:1 interaction model with a term included for mass transport. […]

[4] = system: wild type EGFr peptide-OVA; test: Hybridoma ELISA counter screen on wild type EGFr peptide-OVA coated plates; format: binding, human; conditions: clone supernatant
Description: as §2

[5] = biological target: T5, A431 cells (wild type EGFR) (Homo sapiens, UniProt P00533); test: FACS staining of A431 cells; format: cell-based; conditions: 4° C., Example 6
T5 construct: host or cells: A431
Description: as §1

[6] = Biacore, parentheses 95% confidence interval
[7] = Pep-3, parentheses 95% confidence interval

Molecule	Binding to the EGFRvIII protein on the transfected cell lines [1]	OD #2 muEGFr [2]	OD #1 cloning plate ([2]; cloning plate)	Kd [3]	ka (Pep-3 (EGFRvIII epitope); Biacore, curve fitting)	kd (Pep-3 (EGFRvIII epitope); Biacore, curve fitting)	Ka (Pep-3 (EGFRvIII epitope); [6])	dissociation rate constant (kd, koff) (Pep-3 (EGFRvIII epitope); [6])	ka (Pep-3 (EGFRvIII epitope); [7])	kd (Pep-3 (EGFRvIII epitope); [7])	OD #2 EGFr [4]	Recognition of a subset of wild type EGFRs on A431 cells [5]
B1	bind	1.272	2.248	0.754 nM	2.835*10^5	0.01922	2.10 (0.58) × 10^5 M^−1s^−1	0.016 (0.003) s^−1	2.10 (0.58) × 10^5 M^−1s^−1	0.016 (0.003) s^−1	0.041	did not recognize
B2					2.04*10^5	0.01885			204000 M⁻¹ s⁻¹	0.019 s⁻¹		
B3						0.07622			82200 M⁻¹ s⁻¹	0.076 s⁻¹		
B4						0.03293			83400 M⁻¹ s⁻¹	0.033 s⁻¹		
B5					1.497*10^5	0.03057			150000 M⁻¹ s⁻¹	0.030 s⁻¹		
B6					2.238*10^5	0.01217			2.16 (0.12) × 10^5 M^−1s^−1	0.013 (0.001) s^−1		
B7					2.198*10^5	0.04069			220000 M⁻¹ s⁻¹	0.040 s⁻¹		
